Assay results from paper PMC10154249, “Unique progerin C-terminal peptide ameliorates Hutchinson–Gilford progeria syndrome phenotype by rescuing BUBR1” (Nature Aging, 2023).
These are yes or no findings as the source states them, for the method shown. Binding seen in cells or lysates may run through a third protein. Some binding calls cover weakened binding; strength is not graded here. Blank lines part the entries; values can stand above or below the substance they belong to.

Protein sequences, listed by entry. Tags and fused reporters are not part of them. Lines headed by an entry give the natural chain unless they say otherwise; changes in a name come on top. Chains listed by the source or under a name are the forms on record and can include a tag or linker. Residues count along the entry.
UniProt P02545: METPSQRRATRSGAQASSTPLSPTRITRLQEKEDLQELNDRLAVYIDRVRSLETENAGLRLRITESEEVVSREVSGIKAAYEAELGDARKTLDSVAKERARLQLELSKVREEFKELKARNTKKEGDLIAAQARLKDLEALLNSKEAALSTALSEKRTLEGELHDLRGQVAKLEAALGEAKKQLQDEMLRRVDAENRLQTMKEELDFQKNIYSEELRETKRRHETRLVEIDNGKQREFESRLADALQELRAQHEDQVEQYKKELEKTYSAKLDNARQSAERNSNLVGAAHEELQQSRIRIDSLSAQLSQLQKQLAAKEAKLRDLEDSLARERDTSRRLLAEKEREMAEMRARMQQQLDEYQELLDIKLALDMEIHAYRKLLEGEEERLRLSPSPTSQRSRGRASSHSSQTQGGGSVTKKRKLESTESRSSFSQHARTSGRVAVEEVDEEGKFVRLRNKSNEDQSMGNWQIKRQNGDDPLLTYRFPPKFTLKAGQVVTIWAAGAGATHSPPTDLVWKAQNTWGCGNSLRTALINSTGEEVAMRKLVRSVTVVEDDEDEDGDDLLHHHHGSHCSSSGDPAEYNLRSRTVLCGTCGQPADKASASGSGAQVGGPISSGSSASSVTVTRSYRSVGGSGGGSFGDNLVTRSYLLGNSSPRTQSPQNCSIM
Flag-lamin A: residues 1-646 of P02545
GST-tagged progerin middle region (progerin-M; aa residues 301–564): residues 301-564 of P02545
GST-tagged lamin A C-terminal region (lamin A-C; aa residues 565–664): residues 565-664 of P02545
Flag-progerin (HEK-293T) (P02545, form named): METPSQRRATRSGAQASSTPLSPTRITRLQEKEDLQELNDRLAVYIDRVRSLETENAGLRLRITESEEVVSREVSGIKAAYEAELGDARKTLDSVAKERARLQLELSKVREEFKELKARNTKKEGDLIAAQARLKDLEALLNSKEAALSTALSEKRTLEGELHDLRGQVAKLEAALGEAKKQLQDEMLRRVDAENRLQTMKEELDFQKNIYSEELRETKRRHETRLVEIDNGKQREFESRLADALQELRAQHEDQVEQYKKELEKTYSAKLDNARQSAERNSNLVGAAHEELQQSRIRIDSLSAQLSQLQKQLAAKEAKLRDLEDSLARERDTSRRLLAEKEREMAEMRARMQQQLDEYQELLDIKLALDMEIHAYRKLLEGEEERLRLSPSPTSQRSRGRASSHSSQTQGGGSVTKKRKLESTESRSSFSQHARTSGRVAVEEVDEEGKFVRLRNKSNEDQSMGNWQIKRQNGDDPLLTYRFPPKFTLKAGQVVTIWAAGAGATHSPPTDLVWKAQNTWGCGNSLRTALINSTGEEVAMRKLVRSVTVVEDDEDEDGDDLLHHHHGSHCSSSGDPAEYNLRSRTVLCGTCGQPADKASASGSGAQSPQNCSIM
Flag-tagged progerin C-terminal region (progerin-C; aa residues 565–614) (P02545, form named): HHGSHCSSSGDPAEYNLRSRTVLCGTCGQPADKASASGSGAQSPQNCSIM
UniProt O43684: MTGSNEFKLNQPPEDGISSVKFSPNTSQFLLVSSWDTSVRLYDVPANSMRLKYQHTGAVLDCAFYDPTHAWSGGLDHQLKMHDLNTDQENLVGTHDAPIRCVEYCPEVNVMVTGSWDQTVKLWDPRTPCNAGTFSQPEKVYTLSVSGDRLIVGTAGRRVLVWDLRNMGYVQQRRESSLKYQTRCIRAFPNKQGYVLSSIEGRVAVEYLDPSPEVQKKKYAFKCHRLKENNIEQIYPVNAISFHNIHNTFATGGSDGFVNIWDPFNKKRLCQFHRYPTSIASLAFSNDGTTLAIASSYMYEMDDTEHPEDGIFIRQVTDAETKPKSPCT
UniProt O60566: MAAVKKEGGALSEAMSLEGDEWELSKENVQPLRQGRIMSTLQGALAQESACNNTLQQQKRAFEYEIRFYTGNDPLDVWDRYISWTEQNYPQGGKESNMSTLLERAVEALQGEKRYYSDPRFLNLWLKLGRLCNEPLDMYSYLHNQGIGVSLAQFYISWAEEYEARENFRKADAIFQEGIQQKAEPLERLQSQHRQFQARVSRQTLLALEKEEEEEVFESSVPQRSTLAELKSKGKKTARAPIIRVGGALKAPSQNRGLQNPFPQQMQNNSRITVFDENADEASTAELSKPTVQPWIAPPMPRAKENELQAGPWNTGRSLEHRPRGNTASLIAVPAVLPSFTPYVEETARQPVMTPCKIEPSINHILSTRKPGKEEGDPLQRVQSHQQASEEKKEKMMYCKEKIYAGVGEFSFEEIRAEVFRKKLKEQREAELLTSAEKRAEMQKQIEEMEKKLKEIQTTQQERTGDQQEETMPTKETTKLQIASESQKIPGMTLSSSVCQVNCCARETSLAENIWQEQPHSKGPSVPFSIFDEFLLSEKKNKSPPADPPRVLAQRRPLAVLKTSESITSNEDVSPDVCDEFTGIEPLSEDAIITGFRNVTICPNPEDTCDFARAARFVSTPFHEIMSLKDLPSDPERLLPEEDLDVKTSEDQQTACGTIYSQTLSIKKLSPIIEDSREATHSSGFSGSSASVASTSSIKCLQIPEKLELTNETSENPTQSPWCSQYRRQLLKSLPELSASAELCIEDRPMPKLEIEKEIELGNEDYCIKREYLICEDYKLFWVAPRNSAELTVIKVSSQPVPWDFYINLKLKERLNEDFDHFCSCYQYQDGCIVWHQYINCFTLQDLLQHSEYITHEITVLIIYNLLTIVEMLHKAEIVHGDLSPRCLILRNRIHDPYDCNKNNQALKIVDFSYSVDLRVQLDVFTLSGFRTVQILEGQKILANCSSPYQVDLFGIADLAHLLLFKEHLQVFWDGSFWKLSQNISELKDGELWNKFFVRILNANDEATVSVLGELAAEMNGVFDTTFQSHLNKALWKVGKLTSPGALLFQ
UniProt Q9Z1S0: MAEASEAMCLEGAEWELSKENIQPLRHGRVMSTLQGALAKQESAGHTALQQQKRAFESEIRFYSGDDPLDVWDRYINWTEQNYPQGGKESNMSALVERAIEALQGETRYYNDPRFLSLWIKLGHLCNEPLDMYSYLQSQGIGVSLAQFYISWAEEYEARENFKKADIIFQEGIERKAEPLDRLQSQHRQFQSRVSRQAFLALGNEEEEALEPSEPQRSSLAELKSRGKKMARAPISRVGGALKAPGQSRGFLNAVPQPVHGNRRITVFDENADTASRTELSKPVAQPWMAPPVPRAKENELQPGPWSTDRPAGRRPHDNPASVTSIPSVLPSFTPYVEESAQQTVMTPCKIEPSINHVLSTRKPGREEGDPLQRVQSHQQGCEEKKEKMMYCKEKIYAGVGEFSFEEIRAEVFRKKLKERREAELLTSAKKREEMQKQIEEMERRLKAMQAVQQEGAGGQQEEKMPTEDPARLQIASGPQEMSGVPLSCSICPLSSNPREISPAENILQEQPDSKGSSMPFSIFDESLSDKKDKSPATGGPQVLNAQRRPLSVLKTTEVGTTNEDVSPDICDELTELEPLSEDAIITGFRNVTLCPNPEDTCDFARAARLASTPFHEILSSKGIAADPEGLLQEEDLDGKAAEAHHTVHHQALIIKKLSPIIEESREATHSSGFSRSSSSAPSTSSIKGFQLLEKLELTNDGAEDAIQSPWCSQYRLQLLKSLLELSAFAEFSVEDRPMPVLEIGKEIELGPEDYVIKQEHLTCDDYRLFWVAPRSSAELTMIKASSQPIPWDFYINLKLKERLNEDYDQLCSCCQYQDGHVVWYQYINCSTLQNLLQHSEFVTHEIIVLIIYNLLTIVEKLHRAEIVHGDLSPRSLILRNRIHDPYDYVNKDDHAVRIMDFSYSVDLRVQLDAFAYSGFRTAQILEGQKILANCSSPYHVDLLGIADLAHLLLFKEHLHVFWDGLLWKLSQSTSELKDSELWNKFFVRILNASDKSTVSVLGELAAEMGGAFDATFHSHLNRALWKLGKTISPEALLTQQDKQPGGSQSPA
UniProt P26599: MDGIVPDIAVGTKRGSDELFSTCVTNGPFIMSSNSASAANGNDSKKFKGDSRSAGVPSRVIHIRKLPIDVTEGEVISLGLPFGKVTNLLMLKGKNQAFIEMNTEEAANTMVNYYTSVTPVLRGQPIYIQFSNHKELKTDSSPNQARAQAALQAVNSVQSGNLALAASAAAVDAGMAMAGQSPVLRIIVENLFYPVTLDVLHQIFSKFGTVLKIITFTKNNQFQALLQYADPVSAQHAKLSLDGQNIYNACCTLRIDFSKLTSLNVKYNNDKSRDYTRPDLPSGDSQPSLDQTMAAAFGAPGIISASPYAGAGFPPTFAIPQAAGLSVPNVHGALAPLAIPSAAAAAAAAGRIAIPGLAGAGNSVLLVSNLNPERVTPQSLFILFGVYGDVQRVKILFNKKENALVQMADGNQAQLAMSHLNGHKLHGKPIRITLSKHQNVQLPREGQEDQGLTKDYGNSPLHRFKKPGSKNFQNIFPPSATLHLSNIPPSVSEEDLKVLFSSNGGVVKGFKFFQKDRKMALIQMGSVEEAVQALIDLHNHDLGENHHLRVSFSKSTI

What was measured:
mVenus-progerin (human) = mVenus-progerin (human) (UniProt P02545); assay: co-IP; H1299 cells transfected with mVenus or mVenus-progerin; IP with the anti-GFP antibody
[1] = target: Flag-tagged progerin middle region (progerin-M; aa residues 301–564) (human) (UniProt P02545); assay: co-IP; HEK-293T cells transfected or cotransfected with tagged constructs; CoIP buffer (25 mM Tris-HCl pH 7.5, 150 mM KCl, 5 mM EDTA, 0.5% NP-40); IP with anti-Flag, anti-HA or anti-GFP antibody, Protein A/G magnetic beads, 4 °C
[2] = target: Flag-tagged progerin C-terminal region (progerin-C; aa residues 565–614) (human) (UniProt P02545); assay: as above
[3] = target: Flag-tagged lamin A C-terminal region (lamin A-C; aa residues 565–664) (human) (UniProt P02545); assay: as above
GST-progerin (human) = GST-progerin (human) (UniProt P02545); assay: pull-down; GST-progerin, GST-lamin A or their GST-tagged truncated mutants incubated with HEK-293T cell lysate; BUBR1 detected by blot; only the target purified
[4] = target: GST-tagged progerin middle region (progerin-M; aa residues 301–564) (human) (UniProt P02545); assay: as above
[5] = target: GST-tagged lamin A C-terminal region (lamin A-C; aa residues 565–664) (human) (UniProt P02545); assay: as above
GST-lamin A (human) = GST-lamin A (human) (UniProt P02545); assay: as above
[6] = target: GST-tagged progerin C-terminal region (progerin-C; aa residues 565–614) (human) (UniProt P02545); assay: as above
[7] = target: BUB3 (endogenous, HEK-293T) (human (endogenous in HEK-293T)) (UniProt O43684); assay: co-IP; HEK-293T cells transfected with tagged constructs and treated with or without UPCP peptide (6, 12, 18 μM; 18 μM for 48 h in Extended Data Fig. 9; with nocodazole 200 ng/ml for BUB3 and CDC20)
HA-progerin (human) [8] = target: HA-progerin (human) (UniProt P02545); assay: co-IP; HEK-293T cells cotransfected with truncated mutants of progerin-C and HA-progerin; progerin IP with the anti-HA antibody
HA-progerin (human) [9] = target: HA-progerin (human) (UniProt P02545); assay: co-IP; HEK-293T cells cotransfected with increasing amounts of Flag-progerin-C (5, 10 and 15 μg) and HA-progerin; IP with anti-Flag or anti-HA antibody
[10] = target: Flag-tagged progerin C-terminal region (progerin-C; aa residues 565–614) (human) (UniProt P02545); assay: as above
[11] = target: Flag-progerin (IMR90) (human) (UniProt P02545); assay: co-IP; IMR90 cells or NIH-3T3 cells transfected with Flag-progerin; IP with the Flag antibody
[12] = target: Flag-progerin (NIH-3T3) (human) (UniProt P02545); assay: as above
HA-BUBR1 (human) [13] = target: HA-BUBR1 (human) (UniProt O60566); assay: co-IP; HEK-293T cells transfected or cotransfected with tagged constructs; CoIP buffer (25 mM Tris-HCl pH 7.5, 150 mM KCl, 5 mM EDTA, 0.5% NP-40); IP with anti-Flag, anti-HA or anti-GFP antibody, Protein A/G magnetic beads, 4 °C
HA-BUBR1 (human) [14] = target: HA-BUBR1 (human) (UniProt O60566); assay: co-IP; HEK-293T cells transfected with tagged constructs and treated with or without UPCP peptide (6, 12, 18 μM; 18 μM for 48 h in Extended Data Fig. 9; with nocodazole 200 ng/ml for BUB3 and CDC20)
[15] = target: Flag-progerin (HEK-293T) (human) (UniProt P02545); assay: co-IP; HEK-293T cells transfected or cotransfected with tagged constructs; CoIP buffer (25 mM Tris-HCl pH 7.5, 150 mM KCl, 5 mM EDTA, 0.5% NP-40); IP with anti-Flag, anti-HA or anti-GFP antibody, Protein A/G magnetic beads, 4 °C
Flag-lamin A (human) = Flag-lamin A (human) (UniProt P02545); assay: as above

- binding (mVenus-progerin (human)): binds
Substance: BUBR1 (endogenous, H1299) (from UniProt O60566 1-1050)

- binding [1]: binds
- binding [2]: binds
- binding [3]: no binding
- binding (GST-progerin (human)): binds
- binding [4]: binds
- binding [5]: no binding
- binding (GST-lamin A (human)): binds
- binding [6]: binds
- binding [7]: binds
- binding (HA-progerin (human) [8]): binds
- binding (HA-progerin (human) [9]): binds
- binding [10]: binds
Substance: BUBR1 (endogenous, HEK-293T) (from UniProt O60566 1-1050)

- binding [11]: binds
Substance: BUBR1 (endogenous, IMR90) (from UniProt O60566 1-1050)

- binding [12]: binds
Substance: BubR1 (endogenous, NIH-3T3) (from UniProt Q9Z1S0 1-1052)

- binding (HA-BUBR1 (human) [13]): binds
- binding (HA-BUBR1 (human) [14]): binds
Substance: Flag-PTBP1 (from UniProt P26599 1-557)

- binding [15]: binds
Substance: GFP-BUBR1 (from UniProt O60566 1-1050)

- binding [15]: binds
- binding (Flag-lamin A (human)): binds
Substance: HA-BUBR1 (from UniProt O60566 1-1050)

- binding [15]: binds
Substance: HA-BUBR1-N truncated mutant (aa residues 1–426) (from UniProt O60566 1-426) (domain or fragment)

- binding [15]: binds
Substance: PTBP1 (endogenous, HEK-293T) (from UniProt P26599 1-557)
